# The antibiotic and cytotoxicity screens of Wong et al. (2023)
# The other results are listed elsewhere or left out.
# What was measured:
# [1] = test system: HSkMC (human skeletal muscle cells); test: cytotoxicity call (relative viability < 0.9); conditions: 10 µM
# [2] = test system: HepG2; test: cytotoxicity call (relative viability < 0.9); conditions: 10 µM
# [3] = test system: S. aureus RN4220; test: growth inhibition call (relative growth <= 0.2); conditions: 50 µM
Structure (SMILES),cytotoxicity call [1],cytotoxicity call [2],growth inhibition call [3]
COP(=S)(OC)Oc1ccc(Sc2ccc(OP(=S)(OC)OC)cc2)cc1,inactive,inactive,inactive
CN1CCO[C@H]2CN(c3ncccn3)C[C@@H]21,inactive,inactive,inactive
CO[C@@H]1[C@H](OC(=O)NC(=O)CCl)CC[C@]2(CO2)[C@H]1[C@@]1(C)O[C@@H]1CC=C(C)C,inactive,inactive,inactive
CC(C)N(CCC(C(N)=O)(c1ccccc1)c1ccccn1)C(C)C.O=P(O)(O)O (centres undefined),inactive,inactive,inactive
C#CC1(O)C=CC2C3CCC4=CC(=O)CCC4C3CCC21CC (centres undefined),inactive,inactive,inactive
Cn1ncnc2c(=O)n(C)c(=O)nc1-2,active,active,inactive
O=c1ccc(=O)[nH][nH]1,inactive,inactive,inactive
O=c1cccc2n1C[C@H]1CNC[C@H]2C1,inactive,inactive,inactive
CC(=O)NN1Cc2ccccc2C1=N,inactive,inactive,inactive
CC1(C)C(C=C(Cl)Cl)C1C(=O)OC(C#N)c1cccc(Oc2ccccc2)c1 (centres undefined),inactive,inactive,inactive
CC(=O)OC1C(=O)C2(C)C(O)CC3OCC3(OC(C)=O)C2C(OC(=O)c2ccccc2)C2(O)CC(O)C(C)=C1C2(C)C (centres undefined),inactive,active,inactive
CC(C)(N)Cc1ccccc1,inactive,inactive,inactive
Cc1ccc(C2(CN)CCCCC2)cc1,inactive,inactive,inactive
COc1ccc(C2(CN)CCCC2)cc1,inactive,inactive,inactive
COc1cc2c(c(OC)c1OC)-c1ccc(OC)c(=O)cc1C(NC(C)=O)CC2 (centres undefined),inactive,active,inactive
Nc1ccccc1-c1ccccc1,inactive,inactive,inactive
C[C@@]1(O)[C@H](O)[C@@H](CO)O[C@H]1n1ccc2c(N)ncnc21,inactive,inactive,inactive
C[C@@H]1CN([C@H](C)CO)C(=O)CCCn2cc(nn2)CO[C@@H]1CN(C)C(=O)Oc1ccc2ccccc2c1,inactive,inactive,inactive
O=C1COC2(CNC2)CN1,inactive,inactive,inactive
COC(=O)C[C@@H]1CC[C@@H]2NC[C@@H](O)COC[C@H]2O1,inactive,inactive,inactive
Cc1cccc(C)c1NC1=NCCCS1,inactive,inactive,inactive
O=[N+]([O-])OC1COC2C(O)COC12 (centres undefined),inactive,inactive,inactive

Structure (SMILES),cytotoxicity call [1],cytotoxicity call [2],growth inhibition call [3]
O=C1NC(=O)C(C2(O)C(=O)c3ccccc3C2=O)C(=O)N1,inactive,inactive,inactive
NCc1[nH]nc2cc(F)ccc12,inactive,inactive,inactive
NC(=O)N1C[C@@H]2C[C@H]1CN2,inactive,inactive,inactive
Cc1cccc2[nH]c(CCN)nc12,inactive,inactive,inactive
Cn1ccnc1CN1CCC[C@]2(CCNC2=O)C1,inactive,inactive,inactive
COP(=O)(OC)OC=C(Cl)Cl,inactive,inactive,inactive
C[C@@H]1CN([C@H](C)CO)C(=O)CCCn2nncc2CO[C@H]1CN(C)C(=O)Oc1cccc2ccccc12,inactive,inactive,inactive
CCOC(=O)CC(SP(=S)(OC)OC)C(=O)OCC (centres undefined),inactive,inactive,inactive
O=S1(=O)COC2(CNC2)CN1,inactive,inactive,inactive
O=[N+]([O-])c1ccc(N(CCO)CCO)c2c1no[n+]2[O-],active,active,active
C[CH2][Hg][S]c1ccccc1C(=O)[O-].[Na+],active,active,active
NCCc1ccc(O)cc1,inactive,inactive,inactive
CCC(=O)CCCCC[C@@H]1NC(=O)[C@H]2CCCCN2C(=O)[C@H]([C@@H](C)CC)NC(=O)[C@H](Cc2cn(OC)c3ccccc23)NC1=O,active,active,inactive
C=CCC1(C(C)CCC)C(=O)N=C([S-])NC1=O.[Na+] (centres undefined),inactive,inactive,inactive
NC[C@@H](CC(=O)O)c1ccccc1,inactive,inactive,inactive
NCCc1ccc(S(N)(=O)=O)cc1,inactive,inactive,inactive
CNCCc1ccc(O)c(O)c1,inactive,inactive,inactive
NCCc1c[nH]c2ccc(OCC(=O)O)cc12,inactive,inactive,inactive
S=C=NCc1ccccc1,inactive,active,inactive
CCC(N)C(O)c1ccc(O)c(O)c1.Cl (centres undefined),inactive,active,inactive
COc1ccc([C@@H](CN)C(C)C)cc1OC,inactive,inactive,inactive
